Reference: PubChem BioAssay AID360 (National Center for Advancing Translational Sciences (NCATS), 2006)
Screen size: about 48,000 compounds; about 550 (1.1%) were called active. Another 4% or so got no clear call; they are omitted. No stated cut-off is given here; in the data, active means potency below about 15 µM; inconclusive means mostly about 16 µM to 33 µM; inactive means weaker than that. Some of the results follow.

molecular target: Lysosomal acid glucosylceramidase (Homo sapiens) (UniProt P04062); experiment: Glucocerebrosidase; conditions: purified enzyme, resorufin glucoside fluorescence (screen aimed at inhibitors), 20 min;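 further: the screen sought inhibitors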
Method in brief: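 Wild-type enzyme at 0.2 nM final in 50mM citric acid/KH2PO4, 10mM sodium taurocholate, 0.01% tween-20, pH 5.9, with resorufin beta-D-glucopyranoside at 30 uM final. Compounds titrated, 20 min at RT, red fluorescence read; AC50 from titration.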
Potency means the concentration at half of the fitted maximal effect.

Sequence of UniProt P04062 (P04062 whole entry, looked up): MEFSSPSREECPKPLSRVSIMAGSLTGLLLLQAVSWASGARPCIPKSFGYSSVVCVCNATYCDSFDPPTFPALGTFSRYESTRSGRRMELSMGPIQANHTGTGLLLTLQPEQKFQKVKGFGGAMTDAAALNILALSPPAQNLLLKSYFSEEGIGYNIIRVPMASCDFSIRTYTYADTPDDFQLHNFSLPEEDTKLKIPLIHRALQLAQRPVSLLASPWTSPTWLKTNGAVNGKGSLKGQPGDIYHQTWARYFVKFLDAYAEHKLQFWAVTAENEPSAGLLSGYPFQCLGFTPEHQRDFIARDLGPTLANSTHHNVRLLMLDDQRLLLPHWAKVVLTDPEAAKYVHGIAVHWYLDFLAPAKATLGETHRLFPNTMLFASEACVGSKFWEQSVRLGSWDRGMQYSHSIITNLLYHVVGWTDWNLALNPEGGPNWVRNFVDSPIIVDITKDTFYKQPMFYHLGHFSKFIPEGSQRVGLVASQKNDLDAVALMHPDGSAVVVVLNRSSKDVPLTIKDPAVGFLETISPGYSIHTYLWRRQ

Potency, inactive:
Cc1cnc(NC(=O)CSc2nc3ccccc3c(=O)[nH]2)s1 > 76.9 µM
CC1Cc2nc(SCC(=O)Nc3ccccc3F)n(C)c(=O)c2S1 (stereo unspecified) > 76.9 µM
COc1ccc2cc(C#N)c(N3CCN(Cc4nnnn4CCC(C)C)CC3)nc2c1 > 76.9 µM
COC(=O)c1cccc(S(=O)(=O)N2CCN(c3nc4ccccc4s3)CC2)c1 > 76.9 µM
Cn1cnnc1SCC(=O)c1ccco1 > 76.9 µM
COC(=O)CSc1nnc(-c2ccc(NS(=O)(=O)c3ccccc3)cc2)o1 > 76.9 µM
CCOC(=O)C1CCN(C(=O)CSc2cc(=O)n(C)c3ccccc23)CC1 > 76.9 µM
Cc1ccc(OCc2nnc(SCc3nc4ccccc4[nH]3)n2Cc2ccco2)cc1 > 76.9 µM
COc1ccc(N2CCN(C(=O)CCS(=O)(=O)c3cccc4nsnc34)CC2)cc1 > 76.9 µM
CC(=O)Nc1ccc(NC(=O)CSC2=NCCS2)cc1 > 76.9 µM
CCOCCCN(C(=O)CNC(=O)c1ccco1)C(C(=O)NC1CCCC1)c1ccccc1C (stereo unspecified) > 76.9 µM
CCOc1ncccc1C(=O)OCc1nnc(-c2ccccc2)o1 > 76.9 µM
O=C(COC(=O)CCCc1c[nH]c2ccccc12)Nc1ccc2c(c1)OCO2 > 76.9 µM
CC1N=C2c3ccccc3N=C(SCc3cc(=O)n4ccccc4n3)N2C1=O (stereo unspecified) > 76.9 µM
O=C(CCn1c(=O)oc2ccccc21)NCCCN1CCN(c2ccc(F)cc2)CC1 > 76.9 µM
Cc1ccc(Oc2nc3ccccc3n3c(C)nnc23)cc1 > 76.9 µM
CN(C(=O)COc1ccccc1)c1nnc(-c2cccnc2)s1 > 76.9 µM
O=C(Cc1ccc(S(=O)(=O)N2CCOCC2)s1)Nc1ccc2c(c1)CCC2 > 76.9 µM
C=CCN1C(=O)C2C(C(=O)NC3CCCCC3)C3C=CC2(O3)C1C(=O)NC1CCCC1 (stereo unspecified) > 76.9 µM
C=CCn1c(SCC2=C(C(=O)OCC)C(C)NC(=O)N2)nnc1C1CCCCC1 (stereo unspecified) > 76.9 µM
CCOc1ccc(OCC)c(NC(=O)C2C3C=CC(O3)C2C(=O)NCc2ccco2)c1 (stereo unspecified) > 76.9 µM
CCn1c(=O)c(=O)n(CC)c2cc(S(=O)(=O)Nc3cccc(OC)c3)ccc21 > 76.9 µM
COc1ccc(NC(=O)C(C)NS(=O)(=O)c2ccccc2)cc1Cl (stereo unspecified) > 76.9 µM
Nc1nc(-c2ccco2)cs1 > 76.9 µM
COc1cc(NC(=O)CSc2nnc(C)s2)cc(OC)c1OC > 76.9 µM
Cc1noc(/C=C/N(C)C)c1S(=O)(=O)N(C)CC(=O)NC1CCCCC1 > 76.9 µM
O=C1CN(C(=O)COC(=O)C23CC4CC(CC(O)(C4)C2)C3)c2ccccc2N1 > 76.9 µM
Cc1cccc(-c2c3c(=O)n(C)c(=O)n(C)c3cn2CC2CCCO2)c1 (stereo unspecified) > 76.9 µM
CC(C)Cn1nc(NC(=O)C2CCCO2)c2cc3ccccc3nc21 (stereo unspecified) > 76.9 µM
CN(C(=O)COC(=O)CNS(=O)(=O)/C=C/c1ccccc1)C1CCS(=O)(=O)C1 (stereo unspecified) > 76.9 µM
CCN(CC)CC(=O)c1ccc(-c2ccccc2)cc1 > 76.9 µM
CCOC(=O)Cc1csc(NC(=O)c2ccc3c(c2)OCO3)n1 > 76.9 µM
COc1cc(OC)cc(C(=O)NC2CCN(Cc3nnnn3Cc3cccs3)CC2)c1 > 76.9 µM
CCOC(=O)CSc1nnc(-c2ccncc2)o1 > 76.9 µM
CCOC(=O)c1nn(-c2cc(C(=O)OC)cc(C(=O)OC)c2)cc1O > 76.9 µM
O=C(O)C1CC=CCC1C(=O)Nc1ccc(F)c(F)c1 (stereo unspecified) > 76.9 µM
C=CCn1c(NC(=O)c2ccc(Br)o2)c(C(=O)OCC)sc1=S > 76.9 µM
O=C(c1ccncc1)N(Cc1cc2ccccc2[nH]c1=O)C1CCCCC1 > 76.9 µM
N#CC1=C(N)Oc2cc(N)ccc2C1C1CC=CCC1 (stereo unspecified) > 76.9 µM
COc1ccc(C(=O)Nc2cc(Cl)ccc2Cl)c(OC)n1 > 76.9 µM
NC(=O)Cn1nnc(-c2ccc(C(F)(F)F)cc2)n1 > 76.9 µM
CC(C)Cc1ccc(C(C)C(=O)N2CCOCC2)cc1 (stereo unspecified) > 76.9 µM
CCCCOC(=O)c1ccc(OC(=O)c2cccnc2)cc1 > 76.9 µM
c1ccc(Cn2ncc3c2ncn2c(-c4ccncc4)nnc32)cc1 > 76.9 µM
COCCCNC(=O)Cn1nc(-c2ccc(C)cc2)ccc1=O > 76.9 µM
COc1ccc(-n2c(=O)cc(N3CC(C)OC(C)C3)[nH]c2=O)cc1 (stereo unspecified) > 76.9 µM
CCCc1nc2ccccc2c(=O)n1-c1c(C)n(C)n(-c2ccccc2)c1=O > 76.9 µM
COc1ccc2[nH]c3c(c2c1)CCn1c-3nc2ccccc2c1=O > 76.9 µM
Nn1c(SCc2nc3ccccc3[nH]2)nnc1C1CCCCC1 > 76.9 µM
COc1ccc(-c2cn3cccnc3n2)cc1NC(=O)C1CC1 > 76.9 µM
O=C(Nc1nnc(C2CCCCC2)s1)c1cccs1 > 76.9 µM
COc1cc(OC)c(-c2nn3c(-c4ccncc4)nnc3s2)cc1OC > 76.9 µM
COc1ccc(C(=O)Nc2nc(-c3cccs3)cs2)cc1 > 76.9 µM
O=C(O)c1cccc(C(=O)O)n1 > 76.9 µM
O=C(CN1CCC(O)(c2ccccc2F)CC1)NCCc1c[nH]c2ccccc12 > 76.9 µM
Cc1ccc(C)c(C(=O)CC2(O)C(=O)Nc3ccccc32)c1 (stereo unspecified) > 76.9 µM
Cc1nc2ccccc2c(=O)n1NC(=O)Nc1ccccc1 > 76.9 µM
COc1ccc(CNC(=O)CCc2nc(-c3ccccc3F)no2)c(OC)c1 > 76.9 µM
COC(=O)C(C(=O)N1CCN(C)CC1)C1CCCCCC1 (stereo unspecified) > 76.9 µM
COC(=O)C1(CCSC)NC(c2ccc(O)cc2)C2C(=O)N(c3ccc4c(c3)OCCO4)C(=O)C21 (stereo unspecified) > 76.9 µM
Cc1cccc(-c2c3c(=O)n(C)c(=O)n(C)c3c3nnc4ccccc4n23)c1 > 76.9 µM
CCC1SC2=NC(C)=C(C(=O)OC)C(c3cccs3)N2C1=O (stereo unspecified) > 76.9 µM
CCC(=O)N(Cc1ccco1)c1nc(-c2ccccc2)cs1 > 76.9 µM
Clc1ccc(-c2nc3nc4ccccc4nc3n2Cc2ccco2)cc1 > 76.9 µM
c1ccc2c(c1)N1CCN=C1N2CCN1CCCCC1 > 76.9 µM
O=C(O)CCNc1ccc2c(c1)OCCO2 > 76.9 µM
Nc1cc(Cl)ccc1Oc1ccccc1 > 76.9 µM
CCC(C)(C(=O)NC1CCCCC1)N(Cc1ccco1)C(=O)CNC(=O)c1ccccc1 (stereo unspecified) > 76.9 µM
CCOC(=O)Cn1nnc(-c2cccc(OC)c2)n1 > 76.9 µM
CC(=O)Nc1cccc(NC(=O)C2CCCN2C(=O)Nc2cccc(F)c2)c1 (stereo unspecified) > 76.9 µM
COc1cccc(-n2cnc3scc(-c4cccs4)c3c2=O)c1 > 76.9 µM
N#Cc1ccccc1Cn1c(=O)n(CCCC(=O)NCc2ccc3c(c2)OCO3)c(=O)c2ccccc21 > 76.9 µM
CN1CCN(c2ccc(NC(=O)c3ccccc3Br)cc2)CC1
COCCn1c(N2CCN(c3ccc(OC)cc3)CC2)nc2c1c(=O)[nH]c(=O)n2C > 76.9 µM
CSc1nnc2c(n1)OC(C)N(C(=O)c1ccccc1)c1ccccc1-2 (stereo unspecified) > 76.9 µM
COc1ccc(N2CCN(C(=O)C(OC(C)=O)c3ccccc3)CC2)cc1 (stereo unspecified) > 76.9 µM
COc1ccc2c(c1)c(C(=O)CNc1nc(C)cs1)c(C)n2C > 76.9 µM
C=C(C)Cn1c(SCCCO)nc2c1c(=O)[nH]c(=O)n2C > 76.9 µM
O=C(CN1CCN(CC(=O)Nc2ccc3c(c2)OCO3)CC1)Nc1ccc(F)cc1 > 76.9 µM
Cc1ccc(Cn2c(C)nc3c(c2=O)c2nc4ccccc4nc2n3Cc2ccco2)cc1 > 76.9 µM
Cc1cc(-n2c(C)cc(C(=O)COc3ccc4ccc(=O)oc4c3)c2C)no1 > 76.9 µM
CCOc1ccc(C)cc1S(=O)(=O)n1ccc(C)n1 > 76.9 µM
Cn1c(=O)c2c(nc(CN3CCOCC3)n2CC(O)CO)n(C)c1=O (stereo unspecified) > 76.9 µM
O=S(=O)(c1ccccc1)c1nc(-c2cccs2)oc1NCC1CCCO1 (stereo unspecified) > 76.9 µM
CCOCCCN1CC(C(=O)NCCc2ccccc2)CC1=O (stereo unspecified) > 76.9 µM
CC(C)CCn1c(N2CCN(c3cccc(Cl)c3)CC2)nc2c1c(=O)[nH]c(=O)n2C > 76.9 µM
O=C(NCC1CCCO1)c1cc2ccccc2[nH]1 (stereo unspecified) > 76.9 µM
Cc1cc(C)nc(NS(=O)(=O)c2ccccc2)n1 > 76.9 µM
COc1ccccc1-c1ccc(C(=O)O)o1 > 76.9 µM
CCCOn1nnnc1-c1ccccc1 > 76.9 µM
c1coc(CNc2ncnc3sc4c(c23)CCCCC4)c1 > 76.9 µM
